Assay results reported in patent US20230235057A1 (CHIA TAI TIANQING PHARMACEUTICAL GROUP, published 2023).

Experiments:
human PD-1 [1] = biological target: T1, human PD-1 (human, UniProt Q15116 25-288); test: cell-based or functional assay
human PD-1 [2] = biological target: T1, human PD-1; test: cell-based or functional assay; remark: listed apart in the source
T1 sequence (Q15116 25-288): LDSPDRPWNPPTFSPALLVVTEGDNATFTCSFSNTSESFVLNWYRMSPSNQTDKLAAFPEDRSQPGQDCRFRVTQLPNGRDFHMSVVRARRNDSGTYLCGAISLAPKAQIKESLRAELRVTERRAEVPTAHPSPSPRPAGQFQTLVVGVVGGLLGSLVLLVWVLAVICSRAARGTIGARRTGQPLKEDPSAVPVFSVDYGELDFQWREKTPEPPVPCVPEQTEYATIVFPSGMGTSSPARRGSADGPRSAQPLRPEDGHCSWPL

B1: PD1/TGFβRII fusion protein (other)
heavy: EVQLVESGGGLVQPGGSLRLSCAASGFAFSSYDMSWVRQAPGKGLDWVATISGGGRYTYYPDSVKGRFTISRDNSKNNLYLQMNSLRAEDTALYYCANRYGEAWFAYWGQGTLVTVSSASTKGPSVFPLAPSSKSTSGGTAALGCLVKDYFPEPVTVSWNSGALTSGVHTFPAVLQSSGLYSLSSVVTVPSSSLGTQTYICNVNHKPSNTKVDKKV[human IgG1 Fc with L234A L235A G237A (EU numbers) not spelt out]AGGGGSGGGGSGGGGSGGGGSGIPPHVQKSVNNDMIVTDNNGAVKFPQLCKFCDVRFSTCDNQKSCMSNCSITSICEKPQEVCVAVWRKNDENITLETVCHDPKLPYHDFILEDAASPKCIMKEKKKPGETFFMCSCSSDECNDNIIFSEEYNTSNPD
light: DIQMTQSPSSMSASVGDRVTFTCRASQDINTYLSWFQQKPGKSPKTLIYRANRLVSGVPSRFSGSGSGQDYTLTISSLQPEDMATYYCLQYDEFPLTFGAGTKLELKRTVAAPSVFIFPPSDEQLKSGTASVVCLLNNFYPREAKVQWKVDNALQSGNSQESVTEQDSKDSTYSLSSTLTLSKADYEKHKVYACEVTHQGLSSPVTKSFNRGEC
Biological activity (EC50 of control / EC50 of test sample), reporter gene assay, against Nivolumab (human PD-1 [1]): 72%
EC50 value (ng/mL), reporter gene assay (CHO-PDL1-CD3L cells with Jurkat-PD-1-NFAT cells, luciferase RLU) (human PD-1 [1]): 158 ng/mL
EC50 value (ng/mL), reporter gene assay with reference to Example 4 (human PD-1 [2]): 282 ng/mL
